# Screen size: about 310,000 compounds; about 2,200 (0.71%) showed an effect of 50% or more. Effects have a minus sign here. This is one part of the list.
# Biological target: human ether-à-go-go-related gene (hERG) potassium channel (human, UniProt Q12809)
# Experiment: primary screen, population patch clamp on CHO cells stably expressing hERG
# Sequence of human ether-à-go-go-related gene (hERG) potassium channel (Q12809 whole entry, looked up): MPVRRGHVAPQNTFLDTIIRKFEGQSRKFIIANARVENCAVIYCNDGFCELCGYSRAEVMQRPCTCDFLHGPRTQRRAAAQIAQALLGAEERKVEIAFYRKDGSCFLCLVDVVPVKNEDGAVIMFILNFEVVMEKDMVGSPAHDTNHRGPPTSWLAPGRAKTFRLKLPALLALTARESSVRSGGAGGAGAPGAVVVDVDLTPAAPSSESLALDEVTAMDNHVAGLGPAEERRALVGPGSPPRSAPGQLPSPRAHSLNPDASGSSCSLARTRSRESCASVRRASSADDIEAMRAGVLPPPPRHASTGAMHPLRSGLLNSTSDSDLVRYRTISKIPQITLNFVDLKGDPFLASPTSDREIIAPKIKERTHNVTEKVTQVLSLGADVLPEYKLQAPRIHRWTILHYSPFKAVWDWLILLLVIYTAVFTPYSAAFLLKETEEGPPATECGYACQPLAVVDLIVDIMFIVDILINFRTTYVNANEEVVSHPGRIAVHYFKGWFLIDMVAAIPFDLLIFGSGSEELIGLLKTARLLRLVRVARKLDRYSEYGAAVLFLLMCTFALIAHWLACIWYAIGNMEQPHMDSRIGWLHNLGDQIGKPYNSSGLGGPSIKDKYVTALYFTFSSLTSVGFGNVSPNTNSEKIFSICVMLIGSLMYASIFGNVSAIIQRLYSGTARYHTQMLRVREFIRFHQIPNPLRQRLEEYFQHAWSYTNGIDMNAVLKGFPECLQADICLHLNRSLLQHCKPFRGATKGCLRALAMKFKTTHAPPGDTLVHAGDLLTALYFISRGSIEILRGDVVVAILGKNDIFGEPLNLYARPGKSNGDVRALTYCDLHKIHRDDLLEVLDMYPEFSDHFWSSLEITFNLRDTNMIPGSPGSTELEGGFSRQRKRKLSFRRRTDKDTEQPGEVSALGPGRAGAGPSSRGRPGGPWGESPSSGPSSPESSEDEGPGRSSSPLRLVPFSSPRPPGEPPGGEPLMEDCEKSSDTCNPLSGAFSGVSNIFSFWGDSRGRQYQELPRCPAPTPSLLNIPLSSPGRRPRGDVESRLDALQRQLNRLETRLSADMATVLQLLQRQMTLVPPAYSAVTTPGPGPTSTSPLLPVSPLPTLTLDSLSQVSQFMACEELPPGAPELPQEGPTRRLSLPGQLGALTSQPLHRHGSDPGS
row,Compound,"hERG current change (%, negative = inhibition) at 1uM"
1,Cc1nc(N2CCCCC2C)c2c(C)c(C(=O)Nc3cccc(C(F)(F)F)c3)sc2n1 (stereo not drawn),7.9%
2,O=[N+]([O-])c1ccc(S(=O)(=O)Nc2nc3ccccc3nc2Nc2ccccc2)cc1,0.293%
3,CC(=O)Nc1ccc(OCC(O)Cn2c(C(C)C)nc3ccccc32)cc1 (stereo not drawn),22.6%
4,CCCCn1nc(C(=O)Nc2cc(S(=O)(=O)N(C)C)ccc2C)c2ccccc2c1=O,-1.42%
5,CCOC(=O)CC1CCCCN1Cc1cn[nH]c1-c1ccc(F)cc1F (stereo not drawn),-14.4%
6,COC(=O)C1CC(O)CN1S(=O)(=O)c1ccc2ccccc2c1 (stereo not drawn),1.05%
7,O=[N+]([O-])c1cccnc1Oc1ccccc1F,8.42%
8,CC(C)CC(=O)Nc1ccc(C(=O)Nc2cccc(O)c2)cc1,8.16%
9,CCC1CCCCN1S(=O)(=O)c1ccc(C(=O)Nc2nnc(C3=COCCO3)o2)cc1 (stereo not drawn),10.5%
10,O=C(COC(=O)c1n[nH]c2ccccc12)NC(=O)NCc1ccco1,4.13%
11,CC(=O)c1cc(C)ccc1OC(=O)c1ccco1,7.39%
12,CN(C)c1ccc(NC(=O)COC(=O)c2cc(=O)c3ccccc3o2)cc1,11.9%
13,CCc1nc2ccccc2n1Cc1ccccc1OC,7.19%
14,CN(C(=O)COC(=O)C1CCN(S(=O)(=O)c2ccc3c(c2)OCCO3)CC1)C1CCCCC1,5.05%
15,Brc1ccc(CSc2ncnc3nc[nH]c23)cc1,4.34%
16,Cc1ccc(NC(=O)NC(=O)N(C2CCCCC2)S(=O)(=O)c2ccccc2)cc1,-2.08%
17,Cc1ccccc1-n1c(=O)n(Cc2ccc(C(=O)O)cc2)c(=O)c2[nH]cnc21,10.5%
18,Cn1c(N)c(C(=O)COC(=O)CNS(=O)(=O)c2cccc(Cl)c2)c(=O)n(C)c1=O,10.6%
19,CN1C(=O)/C(=C/c2ccccc2F)Sc2ccc(C(=O)N3CCCC3)cc21,8.75%

row,Compound,"hERG current change (%, negative = inhibition) at 1uM"
1,O=S(=O)(CC(CN1CCOCC1)N1CCOCC1)c1ccccc1 (stereo not drawn),6.43%
2,CC(OC(=O)CC1Sc2ccccc2NC1=O)C(=O)NC1CCCC1 (stereo not drawn),13.2%
3,O=C(Nc1nccs1)c1cc(S(=O)(=O)N2CCCCC2)ccc1Cl,4.48%
4,CN(CC(=O)Nc1ccccc1Br)C(=O)c1ccc(-c2ccc(Cl)cc2)o1,8.46%
5,CCc1ccccc1N(CC(=O)NCC1CCCO1)C(=O)CCC(=O)Nc1nccs1 (stereo not drawn),14.2%
6,COc1ccc(OCc2n[nH]c(=S)n2N)cc1,14.4%
7,N#CCSc1nc2sc3c(c2c(=O)n1C1CCCCC1)CCCC3,3.79%
8,Cc1ccc(C(=O)O/N=C\c2ccc(N3CCCCC3)c([N+](=O)[O-])c2)cc1,14.4%
9,Cc1cccc2nc(COc3ccc4ccccc4c3Br)cn12,1.58%
10,O=c1[nH]c(=O)n(CCC2=CCCCC2)c(O)c1C=NCCCn1ccnc1,-4.12%
11,Cc1cc(=O)n(CC(C)O)c(O)c1C#N (stereo not drawn),16.4%
12,COc1ccccc1N1CCN(Cc2cccc(OC)c2OC)CC1,10.8%
13,O=C(NCCCc1ccccc1)C(=O)NCC1OCCN1S(=O)(=O)c1cc(F)ccc1F (stereo not drawn),0.136%
14,CC(=O)c1c(N2CCCC2)nc(=S)n(-c2ccccc2)c1C,6.02%
15,Cc1ccccc1Nc1nc(N)nc(COC(=O)/C=C/c2ccco2)n1,8.81%
16,Cc1cccn2c(=O)c3cc(C(=O)NC4CCCC4)c(=N)n(Cc4ccc(F)cc4)c3nc12,-19.4%
17,CCN(CC)c1ccc(C=N/C(C#N)=C(\N)C#N)cc1,-8.05%
18,Cc1nn(-c2ccccc2)c(Cl)c1C(=O)NCc1ccccc1F,20.5%
19,COc1ccc(/C=C2\CCC(C3CCCC3)C2=O)c(OC)c1OC (stereo not drawn),12.1%

row,Compound,"hERG current change (%, negative = inhibition) at 1uM"
1,O=C(COc1ccc(S(=O)(=O)N2CCCC2)cc1Cl)NCc1ccccn1,16.4%
2,C[C@H](NC(=O)N1CCn2c1nc1ccccc12)C(=O)NCC1CCCO1 (stereo partly drawn),20.3%
3,CC1=Nn2c(nnc2-c2cccs2)SC1,-0.963%
4,CCOc1ccccc1CNC(=O)CCCC(=O)n1nc(C)c2ccccc21,14.2%
5,CCn1c(CSc2nc(C)cs2)nc2cc(S(=O)(=O)N(C)C)ccc21,6.55%
6,O=C(NC(=S)Nc1ccc(Br)cn1)c1cccs1,13.4%
7,Cc1cccnc1Sc1c([N+](=O)[O-])ncn1C,10.1%
8,CCOC(=O)c1ccc2c(c1)n(CC)c(C)[n+]2CC.[I-],1.24%
9,CSc1ncc(Cl)c(C(=O)Nc2ccc(NC(C)=O)cc2)n1,3.73%
10,COc1ccc(CC(=O)NNC(=O)CCc2ccccc2)cc1,9.69%
11,CCCCn1nnnc1SCC(=O)Nc1cccc(C)n1,-0.653%
12,O=C(CN1CCOCC1)N/N=C/c1cc2ccccc2nc1Cl,-2.96%
13,BrC(=C\c1ccccc1)/C=N/Nc1ccc2nncn2n1,1.99%
14,Nc1c(Cl)ncnc1NCc1cccnc1,14.9%
15,CCOC(=O)C1=C(C)NC(C)=C(C(=O)OCC)C1C(=O)OCC(=O)NC1(C#N)CCCCC1,-7.23%
16,COc1ccc(NC(=O)Cn2nc(C(F)(F)F)c3c2CCCC3)cc1OC,-0.233%
17,Cc1ccc(-c2nc3ccccc3o2)cc1NC(=O)c1ccc2c(c1)OCO2,4.56%
18,COc1ccc(CCN(C)C(=O)C2CCCN(C3CCN(Cc4ccccc4)CC3)C2)cc1OC (stereo not drawn),11.9%
19,O=C(N/N=C/c1ccc([N+](=O)[O-])s1)c1cccnc1,12%

# From paper PMC4336329 (PLoS ONE, 2015)
